Paper PMC5601738, “Facile total synthesis of lysicamine and the anticancer activities of the Ru^II, Rh^III, Mn^II and Zn^II complexes of lysicamine” (Oncotarget, 2017)
Values joined by “and” are separate entries in the source; they are usually repeats but may differ in a detail not shown here. Identical values can stand only once.

Key:
BEL-7404 = test: MTT assay, BEL-7404 cells; assay type: cell-based, human; settings: 48 h; for IC50: MTT, mean ± SD from five independent experiments
NCI-H460 = test: MTT assay, NCI-H460 cells; assay type: cell-based, human; settings: 48 h; for IC50: MTT, mean ± SD from five independent experiments
T-24 = test: MTT assay, T-24 cells; assay type: cell-based, human; settings: 48 h; for IC50: MTT, mean ± SD from five independent experiments
[1] = test system: HL-7702 normal liver cell; test: MTT assay, HL-7702 normal liver cell; assay type: cell-based; settings: 48 h; for IC50: MTT, mean ± SD from five independent experiments
HepG2 = test: MTT assay, HepG2 cells; settings: for inhibitive ratio Hep-G2 / IC50: 48 h; for IC50: read-out: IC50 HepG2, MTT, mean ± SD from five independent experiments
HepG2 cells [2] = test: Uptake of metal complexes in HepG2 cells (ICP-MS); assay type: cell-based, human; settings: HepG2, 2 at 7.0 μM, 3 at […], 8 h
HepG2 cells [3] = test: Cell cycle analysis by flow cytometry; assay type: cell-based, human; settings: for cell population in S phase: 24 h, control 31.23%
[4] = test system: cell cycle regulators genes in HepG2 cells; test: RT-qPCR array, human cell cycle PCR array (PAHS-020Z); assay type: cell-based; settings: HepG2, 7.0 μM, 24 h
[5] = test system: apoptosis genes in HepG2 cells; test: RT-qPCR array, human apoptosis PCR array (PAHS-012Z); assay type: cell-based; settings: HepG2, 7.0 μM, 24 h
ct-DNA = test: CD absorption spectrometry assay with ct-DNA; assay type: binding; settings: ct-DNA 1×10^−4 M, [DNA]/[compound] 10:0.5 to 10:2.0
pBR322 plasmid DNA = test: Agarose gel electrophoresis assay with pBR322 plasmid DNA; assay type: biochemical; settings: pBR322 0.5 μg/μL
Experimental: The DNA cleavage activity of 2, 3 and LY were tested by agarose gel electrophoresis assay using pBR322 plasmid DNA (0.5 μg/μL) in TBE buffer (pH=8.5). […] In contrast, under the same experimental conditions, when the concentration of 2 increased from 10 μM to 50 μM, the mobility of supercoiled DNA (form I) was reduced, but the relaxed form (form II) was not observed. When the concentration of 2 increased further to 70 μM, the form II DNA appeared. Almost all supercoiled DNA (form I) changed to relaxed DNA (form II) when the concentration of 2 reached 90 and 100 μM.
RT-qPCR was performed. The threshold cycle (Ct) values approval no. SCXK 2014-0002 and SYXK 2014-0003), […]
were housed at a sterile environment with conditions of […]
than 3 days before used. Complexes and LYwere all […]
is limited in 1% in final working solutions. KM mice. The large concentration of 2 in 10% (v/v) […]
ct-DNA CD spectrum as control.
The HepG2 xenograft mice were induced by
37 °C in the dark for 4 h.
The percent weight loss or gain was calculated […]
imaging system under a UV-Vis transilluminator.. Percent tumour growth inhibition after initiation of treatment with 2 and cisplatin were calculated by TGI= […]
initial for control group).
Animals were supplied by Guangxi Medical
University Laboratory Animal Centre (Guangxi, China, […]

HepG2 cells [6] = test: Hoechst33258 assay; settings: HepG2, 24 h; 2 at 3.5, 7.0, […]; 3 at 7.0, 14.0, 28.0 μM
caspase-3 in HepG2 cells = test: Activated caspase-3 by flow cytometry; settings: HepG2, at IC50, 24 h; control 0.0 %
caspase-8 in HepG2 cells = test: Activated caspase-8 by flow cytometry; settings: HepG2, at IC50, 24 h; control 2.1 %
caspase-9 in HepG2 cells = test: Activated caspase-9 by flow cytometry; settings: HepG2, at IC50, 24 h; control […]
[7] = Chemical stability test in TBS (UV-Vis, HPLC); settings: 0 h and 24 h
[8] = test system: cell cycle regulatory proteins in HepG2 cells; test: Western blot of cell cycle regulatory proteins; settings: HepG2, 24 h
KM mice = test: Maximum tolerated dose / in vivo safety profile
HepG2 cells [9] = test: ROS, intracellular Ca2+ and mitochondrial membrane potential (DCFH-DA, Fluo-3 AM, JC-1); settings: HepG2, 24 h; 2 at 3.5, 7.0, […]; 3 at 7.0, 14.0, 28.0 μM

Molecule: O.O.O.[Cl][Ru]([Cl])[Cl] [RuCl3·3H2O, reference compound]
- inhibitive ratio BEL-7404 (BEL-7404; metal salts 1× 10-4 mol/L): 32.81±1.52%
- inhibitive ratio NCI-H460 (NCI-H460; metal salts 1× 10-4 mol/L): 27.71±0.63%
- inhibitive ratio T-24 (T-24; metal salts 1× 10-4 mol/L): 30.23±0.78%
- inhibitive ratio HL-7702 ([1]; metal salts 1× 10-4 mol/L): 29.21±0.99%
- inhibitive ratio Hep-G2 (HepG2; metal salts 1× 10-4 mol/L): 25.01±0.99%

Molecule: O.O.O.O.O.O.[O-][Cl+3]([O-])([O-])[O-].[O-][Cl+3]([O-])([O-])[O-].[Zn+2] [Zn(ClO4)2·6H2O, reference compound]
- inhibitive ratio BEL-7404 (BEL-7404; metal salts 1× 10-4 mol/L): 29.55±1.09%
- inhibitive ratio NCI-H460 (NCI-H460; metal salts 1× 10-4 mol/L): 24.08±0.59%
- inhibitive ratio T-24 (T-24; metal salts 1× 10-4 mol/L): 20.16±1.09%
- inhibitive ratio HL-7702 ([1]; metal salts 1× 10-4 mol/L): 22.34±1.47%
- inhibitive ratio Hep-G2 (HepG2; metal salts 1× 10-4 mol/L): 20.18±0.79%

Molecule: [Rh(LY-OH)Cl3CH3OH] [Complex 2]
- inhibitive ratio BEL-7404 (BEL-7404; 20 μmol/L): 37.14±2.55%
- IC50 (BEL-7404): 18.37 ± 0.14 µM
- inhibitive ratio NCI-H460 (NCI-H460; 20 μmol/L): 63.82±3.26% and 63.82%
- IC50 (NCI-H460): 10 ± 2.39 µM
- inhibitive ratio T-24 (T-24; 20 μmol/L): 49.62±1.61%
- IC50 (T-24): 14.3 ± 1.05 µM
- inhibitive ratio HL-7702 ([1]; 20 μmol/L, normal liver cell): 15.11±0.91% and 15.1%
- IC50 ([1]; normal liver cell): 35.1 ± 3.34 µM
- distribution of the metal (Rh or Mn) in mitochondrial vs nuclear fraction (HepG2 cells [2]): higher in the mitochondrial fraction than in the nuclear fraction
- cell population in S phase (HepG2 cells [3]; HepG2, 3.5 μM): 55.23%
- cell population in S phase (HepG2 cells [3]; HepG2, 7.0 μM): 79.34%
- effect on cell cycle progression (HepG2 cells [3]; HepG2, 24 h): significant cell cycle arrest at the S phase
- number of the 89 cell cycle regulators genes differentially expressed in mRNA levels by […] or more [4]: 58 genes
- BCL2A1 mRNA expression, up [5]: 63.84 fold
- CASP14, GADD45A, HRK, PYCARD, and TNFRSF9 mRNA expression, up [5]: 20.12–33.25 fold
- DAPK1 mRNA expression, down [5]: 10.41 fold
- number of the 89 apoptosis-related genes differentially expressed in mRNA levels by […] or more [5]: 61 genes
- change of CD spectrum of ct-DNA / binding (ct-DNA): significant hypochromism in both the negative and the positive bands
- concentration at which form II DNA appeared (pBR322 plasmid DNA; TBE buffer pH=8.5): 70 µM
- DNA cleavage activity on supercoiled pBR322 DNA (pBR322 plasmid DNA; TBE buffer pH=8.5, 10 to 100 μM): could cleave supercoiled DNA
- Hoechst33258 fluorescence / apoptotic cell morphology (HepG2 cells [6]): stronger fluorescence in a dose-dependent manner
- inhibitive ratio Hep-G2 (HepG2; 20 μmol/L): 74.94±0.95%
- fold increase of cytotoxicity (IC50) comparing with the free LY ligand (HepG2; HepG2 cells): 1.6–3.2 fold
- IC50 (HepG2): 7.56 ± 2.91 µM
- proportion of activated caspase-3 cells (caspase-3 in HepG2 cells): 21.1%
- proportion of activated caspase-8 cells (caspase-8 in HepG2 cells): 10.3%
- proportion of activated caspase-9 cells (caspase-9 in HepG2 cells): 8.1%
- stability, UV-Vis spectra and HPLC chromatograms [7]: No obvious changes
- proliferating cell nuclear antigen (PCNA) level [8]: decreased
- animal death (KM mice; 1/3 MTD every two days for 14 days): no animal death
- death of mice (KM mice; single i.p. 22.8 mg/kg, 14 days observation): no death of mice
- body weight loss (KM mice; single i.p. 22.8 mg/kg, next day): 15%
- maximum tolerable dose (MTD) (KM mice; single intraperitoneal injection, 14 days observation): 22.8 mg/kg
- ROS, intracellular Ca2+ and ΔΨm (HepG2 cells [9]): greatly increased the ROS and Ca^2+ levels and promoted the loss of ΔΨm

Molecule: [Ru(LY)Cl2(DMSO)2]·3H2O [Complex 1]
- inhibitive ratio BEL-7404 (BEL-7404; 20 μmol/L): 31.32±1.32%
- IC50 (BEL-7404): 49.5 ± 0.53 µM
- inhibitive ratio NCI-H460 (NCI-H460; 20 μmol/L): 48.03±3.51%
- IC50 (NCI-H460): 15.8 ± 2.31 µM
- inhibitive ratio T-24 (T-24; 20 μmol/L): 50.41±3.18%
- IC50 (T-24): 20.7 ± 1.83 µM
- inhibitive ratio HL-7702 ([1]; 20 μmol/L, normal liver cell): 41.23±2.38%
- IC50 ([1]; normal liver cell): 69.2 ± 1.81 µM
- inhibitive ratio Hep-G2 (HepG2; 20 μmol/L): 18.83±0.56% and 18.83%
- IC50 (HepG2): 57.3 ± 3.32 µM

Molecule: [Zn(LY)2(ClO4)2] [Complex 4]
- inhibitive ratio BEL-7404 (BEL-7404; 20 μmol/L): 37.41±1.53%
- IC50 (BEL-7404): 29.7 ± 0.96 µM
- inhibitive ratio NCI-H460 (NCI-H460; 20 μmol/L): 37.84±1.53%
- IC50 (NCI-H460): 8.17 ± 1.69 µM
- inhibitive ratio T-24 (T-24; 20 μmol/L): 53.81±2.39%
- IC50 (T-24): 16.2 ± 0.93 µM
- inhibitive ratio HL-7702 ([1]; 20 μmol/L, normal liver cell): 38.03±1.67%
- IC50 ([1]; normal liver cell): 34.6 ± 2.21 µM
- inhibitive ratio Hep-G2 (HepG2; 20 μmol/L): 20.39±0.96% and 20.39%
- IC50 (HepG2): 35.5 ± 3.99 µM
